These results are taken from the supplement of paper PMC8512760.

Some test systems named below: HCC-1143; HCC-1187; MDA-468; SUM-149.
Holding throughout (assay): cell viability relative to vehicle (% of vehicle); basal-like triple-negative breast cancer lines; higher = less cytotoxic
What all share (details): 10 µM; 72 h

SMILES strings stand for the structures. Some of the results follow. Most values come without repeats; read them as rough.
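Note: stably firefly luciferase-GFP labeled cells in 96-well plates, viability read as luciferase photon flux after d-luciferin addition, treated wells normalized to vehicle wells, single-dose high-throughput screen.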

In the case of `CN1C2CCC1CC(OC(=O)C(CO)c1ccccc1)C2` (stereo not given) [Hyoscyamine], the cell viability came out at 79.6 in the experiment on HCC-1143, 87 with HCC-1187, 93.6 in the experiment on MDA-468 and 121 with SUM-149.
Take `c1ccc2c(c1)sc1ccccc12` [Dibenzothiophene]: the cell viability with HCC-1143 was determined as 73.1; with HCC-1187, 94.7; in the experiment with MDA-468, 110; in the experiment with SUM-149 it was 81.6.
Taken in the same sequence, the figures for `Cc1cccc(C)c1NC(=O)CN1CCCC1=O` [Nefiracetam] were 79.6, 99.4, 108 and 116.
Taken in the same sequence, the figures for `COc1ccc(C(=O)N2CCCC2=O)cc1` [Aniracetam] were 80.5, 80.4, 116 and 116.
With `C[N+](C)(C)CCCCCCCCCC[N+](C)(C)C.[Br-].[Br-]` [Decamethonium Bromide], the cell viability was found to be 76.7 in the experiment with HCC-1143, 88.4 with HCC-1187, 95 with MDA-468 and 102 in the experiment with SUM-149.
Take `Cl.NCC(O)c1ccc(O)cc1` (racemic) [(+,-)-Octopamine HCl]: the cell viability in the experiment on HCC-1143 stood at 75; in the experiment on HCC-1187, 92.6; with MDA-468, 113; in the experiment on SUM-149 it was 99.2.
`O=S(=O)(F)Cc1ccccc1`: the cell viability in the experiment on HCC-1143 turned out to be 62.5; with HCC-1187, 99; with MDA-468, 93.3; in the experiment with SUM-149, 87.3.
The like results for `CCCCCCCCCCCC[N+](C)(C)CCOc1ccccc1.[Br-]` [Domiphen Bromide] were, in that order, 19.3, 25.7, 31.4 and 29.6.
Regarding `Cn1cc(C2=C(c3cn(C4CCN(Cc5ccccn5)CC4)c4ccccc34)C(=O)NC2=O)c2ccccc21`, the cell viability worked out at 57.2 in the experiment with HCC-1143, 33.6 in the experiment with HCC-1187, 49.3 in the experiment on MDA-468 and 76.4 in the experiment with SUM-149.
As for `CC(C)c1c(CN(C)C(C)Cc2ccccc2)n(C)n(-c2ccccc2)c1=O` (stereo not given) [Famprofazone], the cell viability is 127 in the experiment with HCC-1143, 105 in the experiment on HCC-1187, 112 in the experiment on MDA-468 and 100 in the experiment on SUM-149.
As for `Cc1cccc(Cc2cnc[nH]2)c1C.Cl` [Detomidine HCl], the cell viability with HCC-1143 is 77.1; with HCC-1187 it was 87.3; in the experiment with MDA-468 it was 86.6; with SUM-149, 106.
In the case of `C[N+](C)(C)CC(=O)O.[Cl-]` [Betaine hydrochloride], the cell viability with HCC-1143 came out at 132; in the experiment on HCC-1187, 105; in the experiment on MDA-468, 113; in the experiment with SUM-149, 98.9.
As for `CN(C)C1C(=O)C(C(N)=O)=C(O)C2(O)C(=O)C3=C(O)c4c(O)cccc4C(C)(O)C3CC12.Cl` (stereo not given) [Tetracycline Hydrochloride], the cell viability in the experiment on HCC-1143 was 95.9; in the experiment on HCC-1187, 93.2; in the experiment on MDA-468, 80.2; in the experiment on SUM-149, 79.6.
Regarding `CN1c2ccccc2C(NCCCCCCC(=O)[O-])c2ccc(Cl)cc2S1(=O)=O.[Na+]` (stereo not given) [Tianeptine sodium], the cell viability in the experiment on HCC-1143 was found to be 86.5; in the experiment on HCC-1187, 74.7; with MDA-468 it was 82.1; in the experiment on SUM-149 it was 135.
Taken in the same sequence, the figures for `C[C@@H]1CC[C@H]2[C@@H](C)C(=O)O[C@@H]3OC4(C)CC[C@@H]1[C@]32OO4` [Artemisinine] were 133, 105, 89.3 and 116.
